Several values for one entry are separate records, joined by “and”; a condition that tells them apart may be missing. Equal values may be shown once. About 1,200 (2.5%) of roughly 48,000 compounds were called active. Not shown: some 2% with an inconclusive outcome.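 How the source made its calls: active means activation of at least 60% and not above a set upper limit (about 1 call in 100 departs from these limits); inconclusive means activation of 40% to 60%, or above that upper limit; inactive means activation under 40%.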 This is one part of the list.

UniProt O75388, sequence (O75388 whole entry, looked up): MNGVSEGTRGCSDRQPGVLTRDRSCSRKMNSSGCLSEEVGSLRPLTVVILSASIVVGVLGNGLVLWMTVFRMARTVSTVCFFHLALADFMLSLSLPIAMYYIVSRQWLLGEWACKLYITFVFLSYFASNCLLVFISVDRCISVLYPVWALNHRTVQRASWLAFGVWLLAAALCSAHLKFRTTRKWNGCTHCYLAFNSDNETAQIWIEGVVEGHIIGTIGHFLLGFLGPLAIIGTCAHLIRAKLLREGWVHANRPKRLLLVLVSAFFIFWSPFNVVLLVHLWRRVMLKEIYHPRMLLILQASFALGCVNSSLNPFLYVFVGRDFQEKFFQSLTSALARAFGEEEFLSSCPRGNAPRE

The assay deals with Probable G-protein coupled receptor 32 (Homo sapiens) (UniProt O75388). Briefly: qHTS for Agonists of Human Resolvin D1 Receptor DRV1. Further: 0% is about no effect. The conditions noted are these: CHO-K1 GPR32 beta-arrestin PathHunter luminescence, 90 min; at 76.9 µM; active compounds read high; zero percent set by DMSO-only wells. Summed up:
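Cells are plated overnight, treated with compounds in DMSO for 90 minutes at 37 °C, and developed with PathHunter detection reagent for 1 hour before luminescence is read; signal reflects beta-arrestin binding to GPR32 in engineered CHO-K1 cells.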
Regarding `CCN(c1ccccc1)c1ccc2cc(S(=O)(=O)N3CCCC3)ccc2n1`, the activation is inactive: -13.6%.

As for `Cc1ccc(-n2nc(CO)c(C(=O)NCCCc3ccccc3)n2)cc1C`, the activation is inactive: -23.5%.

Take `COc1ccccc1Cn1cc(C(=O)c2ccc(C)cc2)c(=O)c2cc(C)ccc21`: the activation is inactive: 6.81%.

`CCOC(=O)c1c(C)[nH]c(C)c1S(=O)(=O)N1CCCC(C(=O)Nc2ccc(C)cn2)C1` (stereo not given): the activation is inactive: -2.99%.

For the molecule `CCOc1ccc(Nc2ncnc3c2nc2n3CCCC2)cc1`, the activation is inactive: 12.3%.

In the case of `O=C1OC(CN2CCOCC2)CN1/N=C/c1ccc([N+](=O)[O-])o1` (stereo not given), the activation is inactive: 11.9%.

Turning to `CCc1ccccc1Nc1nn2c(=O)c3ccc(C(=O)NCc4ccccc4OC)cc3nc2s1`, the activation was inactive: 4.15%.

Turning to `CCOc1ccc(NC(=O)CSc2ccc(-c3sc(-c4ccccc4)nc3C)nn2)cc1`, the activation was inactive: -13.1%.

For the molecule `CCOc1ccccc1CNC(=O)c1c(C)oc2ncnc(N3CCOCC3)c12`, the activation is inactive: -10.7%.

Consider `Cc1ccccc1C(=O)NC1(C(F)(F)F)N=C(c2ccccc2)N(C2CCCCC2)C1=O` (stereo not given), for which the activation was inactive: -10.8%.

`CCOc1ccc2nc(Cl)c(C3CC(c4ccc(OC)cc4)=NN3S(C)(=O)=O)cc2c1` (stereo not given): the activation was inactive: -9.78%.

Regarding `CCOC(=O)CNC(=O)Nc1cc(C(=O)NCc2ccccc2OC)ccc1N1CCCC1`, the activation was inactive: -12.8%.

In the case of `CCOC(=O)c1oc2ccc(S(=O)(=O)n3nc(-c4cc(OC)c(OC)c(OC)c4)cc3N)cc2c1C`, the activation is inactive: -16.3%.

As to `CC(C)C(=O)Nc1ccccc1OCc1cc(=O)n2ccccc2n1`, the activation is inactive: -7.69%.

As to `COc1ccc(Cl)cc1NC(=O)C1CCCN(c2ncnc3onc(C)c23)C1` (stereo not given), the activation was inactive: 5.32%.

In the case of `CCOc1ccc(NC(=O)C2CCCN(c3ccc(Sc4ccc(C)cc4)nn3)C2)cc1` (stereo not given), the activation is inactive: 9.69%.

Regarding `O=C(NC(=O)c1ccccc1)Nc1ccc(-c2cc(C(F)(F)F)nn2-c2ccccc2)cc1`, the activation was inactive: 0.839%.

Turning to `COC(=O)C(CCSC)NC(=O)c1cc2c(n(-c3ccc(Cl)cc3)c1=O)CCCC2=O` (stereo not given), the activation was inactive: 15.5%.

As for `CCC(Oc1ccccc1F)C(=O)N1CCC(c2nc3ccccc3s2)CC1` (stereo not given), the activation is inactive: 48.5%.

Turning to `Cc1cccc(N(C)C(=O)CCS(=O)(=O)c2ccc3c(c2)oc(=O)n3C)c1`, the activation was inactive: -1.11%.

With `CCOC(=O)c1c(S(=O)(=O)N2CCC(C(=O)NCc3ccc(F)cc3)CC2)c(C)n(C)c1C`, the activation was inactive: 6.3%.

On to `CN(C)S(=O)(=O)c1ccc2c(c1)N(CC(=O)Nc1ccc(OC(F)(F)F)cc1)C(=O)CS2`, for which the activation was inactive: 0.997%.

For `COc1ccc(OCC(=O)NC2CC(=O)N(c3cccc(OC)c3)C2)cc1` (stereo not given), the activation is inactive: -8.93%.

For the molecule `CCCN(CCC)CC(O)Cn1cc(/C=C/C(=O)c2ccc(C)cc2)c2ccccc21` (stereo not given), the activation is inactive: -11.4%.

Regarding `CC(C(=O)NCc1ccc(Cl)cc1)n1ccc2cc(S(=O)(=O)N3CCCCCC3)ccc21` (stereo not given), the activation was inactive: -7.69%.

`COc1ccc(NC(=O)c2cc(S(=O)(=O)N3CCCCCC3)cn2C)c(OC)c1`: the activation was inactive: 27.7%.

Turning to `COc1ccc(NC(=O)CN2CCN(Cc3ccc(F)cc3)S2(=O)=O)cc1Cl`, the activation is inactive: 46.9%.

Turning to `CCN(CC)CCOc1ccccc1C(=O)CCc1ccccc1`, the activation is active: 107%.

Take `COc1ccc(OC)c(CNC(=O)c2c3c(nc4ccccc24)C(=O)N(C2CCCCC2)C3)c1`: the activation was inactive: 1.84%.

As to `O=C(NCc1ccccc1Cl)C1CCCN(S(=O)(=O)c2cccc3nsnc23)C1` (stereo not given), the activation is inactive: -2.83%.

For the molecule `CCOC(=O)c1c(C)[nH]c(C)c1S(=O)(=O)N1CCC(C(=O)N2CCN(c3ccccc3)CC2)CC1`, the activation is inactive: 2.4%.

As for `CCC(=O)N1CCc2cc(Br)cc(S(=O)(=O)N3CCN(c4ccc(C)cc4)C(C)C3)c21` (stereo not given), the activation was inactive: -8%.

Turning to `Cc1ccccc1-c1noc(-c2cccnc2NCc2ccco2)n1`, the activation was inactive: -0.988%.

Consider `CCOC(=O)c1c(C)[nH]c(C)c1S(=O)(=O)N1CCC(C(=O)N2CCN(c3cccc(Cl)c3)CC2)CC1`, for which the activation was inactive: 36.4%.

Regarding `COc1ccc(N2Cc3cccc(C(=O)Nc4cc(C)cc(C)c4)c3C2=O)cc1`, the activation was inactive: -5.61%.

As to `CSC1=NC2(CCN(C(=O)NC3CCCCC3)CC2)N=C1c1ccc(C)cc1`, the activation is inactive: 1.37%.

As for `O=C(C1COc2ccccc2O1)N1CCN(c2nc3ccc(F)cc3s2)CC1` (stereo not given), the activation was inactive: -15.2%.

In the case of `Cc1noc(-c2ccc(-c3noc(-c4cccc(F)c4)n3)cc2)n1`, the activation was inactive: 5.48%.

Turning to `NC(=O)C1CCN(C(=O)c2cccc(NC(=O)c3nsc4ccccc34)c2)CC1`, the activation was inactive: 1.98%.

Take `Cc1cc(F)ccc1NC(=O)CCS(=O)(=O)c1ccc2c(c1)CC(C)N2C(=O)C1CC1` (stereo not given): the activation was inactive: 9.18%.

Regarding `CCOc1ccc(CNC(=O)CSc2cc(=O)n(CC)c3ccccc23)cc1`, the activation was inactive: 46.7%.

As to `Nc1c(C(=O)Nc2ccc(OC(F)(F)F)cc2)nnn1Cc1ccccc1`, the activation is inactive: -4.31%.

As for `CCN(CC)S(=O)(=O)c1nnc(NC(=O)COc2ccccc2F)s1`, the activation is inactive: -9.29%.

With `Cn1c(=O)c2c(nc(SCC(=O)Nc3ccccc3)n2Cc2ccccc2F)n(C)c1=O`, the activation was inactive: 11.9%.

For the molecule `Cc1ccc(C#N)c(=O)n1CC(=O)Nc1ccccc1C(F)(F)F`, the activation was inactive: -6.6%.

Consider `O=C(C1COc2ccccc2O1)N(Cc1cccnc1)c1nc2ccc(Cl)cc2s1` (stereo not given), for which the activation is inactive: -15.5%.

`CCc1cccc(C)c1Nc1c(-c2ccccc2)nc2sccn12`: the activation is inactive: -15.2%.

Turning to `Fc1ccc(CNc2ncnc3onc(-c4ccc(F)cc4)c23)cc1`, the activation is inactive: 35.1%.

With `CCc1c(CN2CCN(c3cccc(C)c3C)CC2)csc1C`, the activation was inactive: 17.9%.

Regarding `O=C(NC1CCCCC1)c1ccc(Cn2c(SCc3ccc(F)cc3)nc3cccnc32)cc1`, the activation is inactive: -11.7%.

Consider `Cc1ccc2c(c1)-c1onc(C(=O)N3CCN(c4ccc(Cl)cc4)CC3)c1CO2`, for which the activation was inactive: 8.71%.

In the case of `CCOC(=O)N1CCN(Cc2nc3cc(NC(=O)c4ccccc4[N+](=O)[O-])ccc3n2C(C)C)CC1`, the activation was inactive: 2.92%.

In the case of `Cc1ccc(-n2c3nc(=O)[nH]c(=O)c-3cc3c(C)nn(-c4ccccc4)c32)cc1Cl`, the activation was inactive: 5.5%.

As for `CCCNC(=O)C1CCC(Cn2c(=O)c3sccc3n(Cc3ccccc3F)c2=O)CC1` (stereo not given), the activation was inactive: -1.14%.

With `COCCCn1c(=N)c(C(=O)NCc2ccco2)cc2c(=O)n3ccccc3nc21`, the activation was inactive: -4.26%.

As for `Cc1cccc(C)c1NC(=O)NCCc1c[nH]c2ccccc12`, the activation is inactive: -1.19%.

As to `COc1ccccc1CNC(=O)CCn1nc(C)c2c(C)n(-c3ccccc3)nc2c1=O`, the activation is inactive: -6.2%.

As to `CNCCCN1c2ccccc2CCc2ccccc21`, the activation was inactive: 2.23% and inactive: -0.376%.

`Cc1oc(-c2ccc(Cl)cc2)nc1CS(=O)CC(=O)N1CCN(c2cccc(C(F)(F)F)c2)CC1` (stereo not given): the activation was inactive: -0.133%.

For the molecule `COc1cccc(N2CCN(c3ncnc4c3nc3n4CCCCC3)CC2)c1`, the activation was inactive: 9.46%.

For the molecule `CCCCN(CC)C(=O)CSc1nc2n[nH]c(C)c2c(=N)n1-c1cccc(OC)c1`, the activation is inactive: -19.6%.

On to `Brc1ccc(-c2nc3ccccn3c2Nc2ccc3c(c2)OCCO3)o1`, for which the activation is inactive: -16.4%.

Regarding `O=S(=O)(c1ccccc1)c1nnn2c1nc(NCc1ccc(F)cc1)c1sccc12`, the activation was inactive: 5.57%.

Take `Nc1ccc(/C=C/c2ccc(N)cc2S(=O)(=O)O)c(S(=O)(=O)O)c1`: the activation was inactive: -6.59%.

`CCC1CN(C(=O)Nc2cc(C)ccc2OC)c2cc(Cl)ccc2O1` (stereo not given): the activation was inactive: -36.5%.

On to `CCCCC(=O)OCc1cc(=O)n2nc(C3CCCCC3)sc2n1`, for which the activation was inactive: -2.65%.

As for `Cc1cc(C)n(-c2nc3ccccc3nc2Nc2ccc(Cl)c(Cl)c2)n1`, the activation was inactive: -1.47%.

With `COc1ccccc1NCc1cccn1-c1nnc(N2CCCCCC2)s1`, the activation is inactive: -8.74%.

For the molecule `COC(=O)c1ccc(NC(=O)CC2Nc3cc(C)c(C)cc3NC2=O)cc1` (stereo not given), the activation was inactive: -47.2%.

`Cc1cccc(OCC(=O)Nc2c(C(=O)N3CCN(c4ccccc4F)CC3)oc3ccccc23)c1`: the activation is inactive: -19.1%.

For `CCOc1ccc(S(=O)(=O)Nc2ccc3oc(C)c(C(=O)OC(C)C)c3c2)cc1`, the activation was active: 87%.

For `Cc1cc(C)cc(OCC(=O)NC(Cc2c[nH]c3ccccc23)C(=O)O)c1` (stereo not given), the activation is inactive: -0.167%.

Take `Cc1ccc2onc(CC(=O)Nc3cccc(C(F)(F)F)c3)c2c1`: the activation was inactive: 13.9%.

As for `COc1ccc(C2c3c(n(C)c4ccccc34)C(=O)N2CC(=O)Nc2cc(Cl)ccc2C)cc1` (stereo not given), the activation is inactive: -15.9%.

For the molecule `Cc1ccc(NC(=O)N2CCc3cc(S(=O)(=O)N4CCC(C)CC4)ccc32)cc1F`, the activation is inactive: -11.4%.

For `CCOC(=O)c1ccc(N2C(=O)c3[nH]nc(-c4ccc(OC)cc4)c3C2c2ccccc2Cl)cc1` (stereo not given), the activation was inactive: -5.64%.

With `CCOC(=O)N1CCN(C(=O)CN(c2cccc(Cl)c2)S(=O)(=O)c2ccccc2)CC1`, the activation is inactive: -7.34%.

`CCCc1cc(=O)n2[nH]c(NC(=O)c3ccccc3Cl)nc2n1`: the activation was inactive: 8.63%.

Take `CCCN(C(=O)c1cc2c(=O)oc3ccccc3c2s1)c1cccc(Cl)c1`: the activation was inactive: 14.3%.

Turning to `O=C(Nc1ccccc1)N(Cc1cccs1)c1ccc(F)cc1`, the activation is inactive: -12.8%.

In the case of `CCOC(=O)c1sc(N2C(=O)c3oc4ccc(C)cc4c(=O)c3C2c2ccccc2F)nc1C` (stereo not given), the activation is inactive: 6.68%.

As for `COc1cccc(CNC(=O)c2cc(S(=O)(=O)N3CCCCCC3)cn2C)c1`, the activation was inactive: 31.7%.

`C[n+]1ccccc1/C=N/O`: the activation was inactive: 6.12%.

For the molecule `CCOC(=O)CSc1nc2cc3c(cc2c(=O)n1CCCC(=O)NCCc1ccc(OC)c(OC)c1)OCO3`, the activation was inactive: -13.3%.

Take `CCOC(=O)c1c(NC(=O)CSc2cn(CCNC(=O)c3ccc(OC)c(OC)c3)c3ccccc23)sc2c1CCCC2`: the activation was inactive: 3.13%.

The values above are taken from PubChem BioAssay AID1346428 (National Center for Advancing Translational Sciences (NCATS), 2018).
